Results published in the supplement of paper PMC10369915.
The other results are listed elsewhere or left out. No stated cut-off is given here; in the data, active = 3.2 or more and inactive = the rest. Most of these values are background signal.

target: SHP2 C-SH2 domain E139D; experiment: enrichment score (SH2-bound / input frequency) (ratio); bacterial display of known human phosphotyrosine sites (pTyr-Var adds point mutants) read by sequencing; higher = stronger binding; tyrosines were phosphorylated by kinases first; details: peptide library: Human pTyr
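Further: displayed peptides selected on beads carrying the immobilized SH2 domain, with library peptides lacking any tyrosine serving as negative controls.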

Enrichment score, inactive:
SFTGSRTYSLVGQAW [NTAL_HUMAN_58] 1.08, DVYSTDYYRVGGHTM [NTRK2_HUMAN_707] 0.698, TDEAQFIYILGNRSK [ANXA6_HUMAN_201] 1.4, DVYSTDYYRLFNPSG [NTRK3_HUMAN_710] 0.627, VESLESLYFTPIPAR [NUMA1_HUMAN_1774] 1.25, DDFRQPRYSSGGNFE [OCLN_HUMAN_368] 0.649, MSDPGVSYRTREEIQ [ODPA_HUMAN_301] 0.696, SDHMENVYGALMKAT [OSB11_HUMAN_62_YA] 0.899, ALLAKKGYQERDLEP [P2RX6_HUMAN_64] 0.671, NEDADENYFINEEDE [P55G_HUMAN_341] 1.78, SREYDRLYEEYTRTS [P85A_HUMAN_467] 0.904, SREYDQLYEEYTRTS [P85B_HUMAN_464] 0.799, ESSQRGCYACSVVVD [P85B_HUMAN_655] 0.72, IVGSKPLYVALAQRK [PABP4_HUMAN_364] 0.885, GVRVRALYDYDGQEQ [PACN1_HUMAN_394] 1.51, KSLVGTPYWMAPEVI [PAK6_HUMAN_566] 1.02, DAKKEGPYDVVVLPG [PARK7_HUMAN_67] 0.63, SKLHDSLYNEDCTFQ [APC1_HUMAN_571] 1.01

target: SHP2 C-SH2 domain wild-type; experiment: as above; details: peptide library: Human pTyr

Enrichment score, inactive:
SFTGSRTYSLVGQAW [NTAL_HUMAN_58] 2.2, DVYSTDYYRVGGHTM [NTRK2_HUMAN_707] 0.681, TDEAQFIYILGNRSK [ANXA6_HUMAN_201] 1.27, DVYSTDYYRLFNPSG [NTRK3_HUMAN_710] 0.643, VESLESLYFTPIPAR [NUMA1_HUMAN_1774] 1.11, DDFRQPRYSSGGNFE [OCLN_HUMAN_368] 0.498, MSDPGVSYRTREEIQ [ODPA_HUMAN_301] 0.641, SDHMENVYGALMKAT [OSB11_HUMAN_62_YA] 0.782, ALLAKKGYQERDLEP [P2RX6_HUMAN_64] 0.739, NEDADENYFINEEDE [P55G_HUMAN_341] 1.23, SREYDRLYEEYTRTS [P85A_HUMAN_467] 0.705, SREYDQLYEEYTRTS [P85B_HUMAN_464] 0.636, ESSQRGCYACSVVVD [P85B_HUMAN_655] 0.633, IVGSKPLYVALAQRK [PABP4_HUMAN_364] 0.996, GVRVRALYDYDGQEQ [PACN1_HUMAN_394] 1.42, KSLVGTPYWMAPEVI [PAK6_HUMAN_566] 0.823, DAKKEGPYDVVVLPG [PARK7_HUMAN_67] 0.495, SKLHDSLYNEDCTFQ [APC1_HUMAN_571] 0.831

target: SHP2 N-SH2 domain L43F; experiment: as above; details: peptide library: Human pTyr

Enrichment score, inactive:
SFTGSRTYSLVGQAW [NTAL_HUMAN_58] 0.739, DVYSTDYYRVGGHTM [NTRK2_HUMAN_707] 0.47, TDEAQFIYILGNRSK [ANXA6_HUMAN_201] 1.19, DVYSTDYYRLFNPSG [NTRK3_HUMAN_710] 0.72, VESLESLYFTPIPAR [NUMA1_HUMAN_1774] 0.973, DDFRQPRYSSGGNFE [OCLN_HUMAN_368] 0.443, MSDPGVSYRTREEIQ [ODPA_HUMAN_301] 0.726, SDHMENVYGALMKAT [OSB11_HUMAN_62_YA] 0.937, ALLAKKGYQERDLEP [P2RX6_HUMAN_64] 0.86, NEDADENYFINEEDE [P55G_HUMAN_341] 1.45, SREYDRLYEEYTRTS [P85A_HUMAN_467] 0.661, SREYDQLYEEYTRTS [P85B_HUMAN_464] 0.524, ESSQRGCYACSVVVD [P85B_HUMAN_655] 0.729, IVGSKPLYVALAQRK [PABP4_HUMAN_364] 0.739, GVRVRALYDYDGQEQ [PACN1_HUMAN_394] 1.25, KSLVGTPYWMAPEVI [PAK6_HUMAN_566] 0.742, DAKKEGPYDVVVLPG [PARK7_HUMAN_67] 0.775, SKLHDSLYNEDCTFQ [APC1_HUMAN_571] 0.88

target: SHP2 N-SH2 domain T42A; experiment: as above; details: peptide library: Human pTyr

Enrichment score, inactive:
SFTGSRTYSLVGQAW [NTAL_HUMAN_58] 0.888, DVYSTDYYRVGGHTM [NTRK2_HUMAN_707] 0.556, TDEAQFIYILGNRSK [ANXA6_HUMAN_201] 0.811, DVYSTDYYRLFNPSG [NTRK3_HUMAN_710] 0.448, VESLESLYFTPIPAR [NUMA1_HUMAN_1774] 0.922, DDFRQPRYSSGGNFE [OCLN_HUMAN_368] 0.528, MSDPGVSYRTREEIQ [ODPA_HUMAN_301] 0.786, SDHMENVYGALMKAT [OSB11_HUMAN_62_YA] 0.85, ALLAKKGYQERDLEP [P2RX6_HUMAN_64] 0.588, NEDADENYFINEEDE [P55G_HUMAN_341] 1.91, SREYDRLYEEYTRTS [P85A_HUMAN_467] 0.59, SREYDQLYEEYTRTS [P85B_HUMAN_464] 0.762, ESSQRGCYACSVVVD [P85B_HUMAN_655] 0.636, IVGSKPLYVALAQRK [PABP4_HUMAN_364] 1.25, GVRVRALYDYDGQEQ [PACN1_HUMAN_394] 1.07, KSLVGTPYWMAPEVI [PAK6_HUMAN_566] 0.826, DAKKEGPYDVVVLPG [PARK7_HUMAN_67] 0.6, SKLHDSLYNEDCTFQ [APC1_HUMAN_571] 0.974

target: SHP2 N-SH2 domain T52S; experiment: as above; details: peptide library: Human pTyr

Enrichment score, inactive:
SFTGSRTYSLVGQAW [NTAL_HUMAN_58] 0.937, DVYSTDYYRVGGHTM [NTRK2_HUMAN_707] 0.623, TDEAQFIYILGNRSK [ANXA6_HUMAN_201] 1.21, DVYSTDYYRLFNPSG [NTRK3_HUMAN_710] 0.572, VESLESLYFTPIPAR [NUMA1_HUMAN_1774] 1.19, DDFRQPRYSSGGNFE [OCLN_HUMAN_368] 0.612, MSDPGVSYRTREEIQ [ODPA_HUMAN_301] 0.965, SDHMENVYGALMKAT [OSB11_HUMAN_62_YA] 1.3, ALLAKKGYQERDLEP [P2RX6_HUMAN_64] 0.811, NEDADENYFINEEDE [P55G_HUMAN_341] 2.07, SREYDRLYEEYTRTS [P85A_HUMAN_467] 0.722, SREYDQLYEEYTRTS [P85B_HUMAN_464] 0.594, ESSQRGCYACSVVVD [P85B_HUMAN_655] 0.701, IVGSKPLYVALAQRK [PABP4_HUMAN_364] 0.744, GVRVRALYDYDGQEQ [PACN1_HUMAN_394] 1.28, KSLVGTPYWMAPEVI [PAK6_HUMAN_566] 0.846, DAKKEGPYDVVVLPG [PARK7_HUMAN_67] 0.603, SKLHDSLYNEDCTFQ [APC1_HUMAN_571] 0.8

target: SHP2 N-SH2 domain wild-type; experiment: as above; details: peptide library: Human pTyr

Enrichment score, inactive:
SFTGSRTYSLVGQAW [NTAL_HUMAN_58] 0.898, DVYSTDYYRVGGHTM [NTRK2_HUMAN_707] 0.629, TDEAQFIYILGNRSK [ANXA6_HUMAN_201] 1.64, DVYSTDYYRLFNPSG [NTRK3_HUMAN_710] 0.426, VESLESLYFTPIPAR [NUMA1_HUMAN_1774] 1.11, DDFRQPRYSSGGNFE [OCLN_HUMAN_368] 0.528, MSDPGVSYRTREEIQ [ODPA_HUMAN_301] 0.703, SDHMENVYGALMKAT [OSB11_HUMAN_62_YA] 1.2, ALLAKKGYQERDLEP [P2RX6_HUMAN_64] 0.625, NEDADENYFINEEDE [P55G_HUMAN_341] 2.36, SREYDRLYEEYTRTS [P85A_HUMAN_467] 0.773, SREYDQLYEEYTRTS [P85B_HUMAN_464] 0.668, ESSQRGCYACSVVVD [P85B_HUMAN_655] 0.647, IVGSKPLYVALAQRK [PABP4_HUMAN_364] 0.908, GVRVRALYDYDGQEQ [PACN1_HUMAN_394] 1.22, KSLVGTPYWMAPEVI [PAK6_HUMAN_566] 0.837, DAKKEGPYDVVVLPG [PARK7_HUMAN_67] 0.793, SKLHDSLYNEDCTFQ [APC1_HUMAN_571] 0.822
